In PubChem BioAssay AID463173 (ICCB-Longwood Screening Facility, Harvard Medical School, 2010):
The campaign covered roughly 52,000 compounds. About 4,300 (8.3%) were called active. Cut-off read from the data, not from the text of the source: active = survival mostly below about 52% (no sharp cut-off); inactive = mostly above about 56%. The list shows a part of the results.

These compounds were tested on DeltatarO mutant (assay: S. aureus survival, RN4220 and DeltatarO strains – OD600, teichoic acid synthesis inhibitors, primary screen (AID 463173)). Conditions: S. aureus RN4220 wild type/DeltatarO growth, OD600, 18 h, stronger effect = lower value, screened at 18.75 µg/mL (by protocol).
With `CC(C)Sc1nc2sc3c(c2c(=O)n1-c1ccccc1)CCCC3` the survival was active: -3%. With `CC(=O)c1ccc(N2C(=O)Nc3ccccc3S2(=O)=O)cc1` the survival was inactive: 115%. `Cc1ccc(N2CC(NC(=O)c3ccccc3Br)CC2=O)cc1` (stereo not drawn) was tested, and the survival was inactive: 95%. With `O=C(Nc1ccc(F)c(Cl)c1)C1CCN(S(=O)(=O)c2ccc3c(c2)CCCN3C(=O)C2CCC2)CC1` the survival was inactive: 94%. For `Cc1ccc(CSc2cn(CCNC(=O)c3cccs3)c3ccccc23)cc1`, the survival was inactive: 58%. `O=C(Cn1c(SCC(=O)Nc2ccc(F)cc2)nc2ccccc21)NCc1ccc(Cl)cc1` was tested, and the survival was inactive: 89%. With `Nc1ncc(S(=O)(=O)Nc2ccc(OC(F)(F)F)cc2)cn1` the survival was inactive: 79%. With `CCOC(=O)c1ccccc1NC(=O)Cn1c(=O)n(-c2ccc(CC)cc2)c(=O)c2c(C)c(C(=O)N(C)C)sc21` the survival was active: 0%. In the case of `Cc1ccc(S(=O)(=O)N2Cc3ccccc3CC2C(=O)N2CCCCC2)cc1` (stereo not drawn), the survival is reported as inactive: 78%. For `CCOc1ccccc1CNC(=O)c1ccc2c(c1)nc1n2CCC(C)C1` (stereo not drawn), the survival was inactive: 122%. In the case of `COc1ccc(OC)c(NC(=O)c2c(NCc3ccc(N(C)C)cc3)sc3c2CCCC3)c1`, the survival is reported as inactive: 124%. For `COc1cc(OC)cc(C(=O)Nc2ccc3c(c2)n(C)c(=O)c(=O)n3C)c1`, the survival was inactive: 70%. For `COc1ccc(S(=O)(=O)N(CC(=O)Nc2ccc3c(c2)OCO3)c2ccc(C)cc2)cc1`, the survival was inactive: 49%. In the case of `O=C(NCc1ccccc1Cl)c1ccc(NC(=O)N2CCSc3ccccc32)cc1`, the survival is reported as inactive: 59%. In the case of `COc1ccccc1N(CC(=O)Nc1cc(C)cc(C)c1)S(C)(=O)=O`, the survival is reported as inactive: 82%. With `O=C(Nc1nnc(S(=O)(=O)N2CCCCCC2)s1)c1ccccc1` the survival was active: 38%. In the case of `CCc1ccc(NS(=O)(=O)c2c(-c3ccccc3)csc2C(=O)OC)cc1`, the survival is reported as inactive: 78%. For `Cc1cc(NCc2ccc(Cl)cc2)n2cnnc2n1`, the survival was inactive: 87%. For `CCc1cccc(NC(=O)Cn2ccn3nc(-c4ccc(OC)c(OC)c4)cc3c2=O)c1`, the survival was inactive: 84%. `CN(Cc1ccco1)S(=O)(=O)c1nnc(NC(=O)c2ccccc2)s1` was tested, and the survival was active: 23%. For `O=C(Nc1ccc(F)cc1)c1ccc2c(c1)NC(=O)c1ccccc1S2`, the survival was inactive: 85%. With `Cc1cccc(-c2noc(-c3ccc(NCc4cccnc4)c([N+](=O)[O-])c3)n2)c1` the survival was inactive: 69%. For `CCOc1ccc(NC(=O)c2nnn(-c3ccc(F)c(Cl)c3)c2C)cc1`, the survival was inactive: 91%. For `CCOC(=O)c1cc2ccc(O)cc2oc1=O`, the survival was inactive: 75%. For `CC1=C(C(=O)Nc2ccccc2)C(c2ccccn2)n2nc(SCc3ccccc3Cl)nc2N1` (stereo not drawn), the survival was inactive: 149%. For `CCC(=O)Nc1cccc(OCc2cc(=O)n3cc(C)ccc3n2)c1`, the survival was inactive: 55%. In the case of `Cc1nc2c(-c3ccccc3)c(C)nn2c(C)c1CCC(=O)NCc1ccccc1`, the survival is reported as inactive: 85%. With `CCn1cc2nc(SCc3cccc(C)c3)n(CCc3ccccc3)c(=O)c2n1` the survival was inactive: 71%. For `CCOC(=O)c1ccc(NC(=O)CCC(=O)N2CCSc3ccccc32)cc1`, the survival was inactive: 59%. In the case of `Cc1ccc(S(=O)(=O)n2nc(-c3ccco3)nc2NCc2ccc(N(C)C)cc2)cc1`, the survival is reported as inactive: 70%. `Cn1cc(S(=O)(=O)N2CCCCC2)cc1C(=O)Nc1ccc(OC(F)(F)F)cc1` was tested, and the survival was inactive: 84%. In the case of `O=C(Cn1cc(S(=O)(=O)c2ccccc2)c(=O)c2cc3c(cc21)OCO3)Nc1ccccc1`, the survival is reported as inactive: 108%. In the case of `CCc1ccc2occ(CC(=O)Nc3sc4c(c3C(=O)NCCOC)CCCC4)c2c1`, the survival is reported as inactive: 77%. In the case of `Cc1ccc(S(=O)(=O)C(CNC(=O)c2ccc(C(F)(F)F)cc2)c2ccco2)cc1` (stereo not drawn), the survival is reported as inactive: 130%. `Cc1noc(-c2ccc(-c3noc(-c4cccc(Cl)c4)n3)cc2)n1` was tested, and the survival was inactive: 60%. With `Cc1nc2nc(SCC(=O)NC3CCC(C)CC3)nn2c(C)c1Cc1ccccc1Cl` (stereo not drawn) the survival was inactive: 83%. With `COc1ccc(CNC(=O)CN(C(=O)c2ccc(N3CCCC3)nc2)c2ccccc2C)cc1` the survival was inactive: 75%. For `Cc1ccc(-n2nc(C)c(C(=O)NCCCN3CCN(c4cccc(Cl)c4)CC3)c2-n2cccc2)cc1`, the survival was active: 0%. In the case of `CCc1ccccc1NC(=O)C1CCN(c2nc3ccccc3[nH]2)CC1`, the survival is reported as inactive: 85%. In the case of `COc1ccc(C(=O)NCc2nc(-c3cccc(C)c3)no2)cc1OC`, the survival is reported as inactive: 98%. In the case of `Cc1nc(-c2ccc(S(=O)(=O)NCc3ccc(F)cc3)cc2)co1`, the survival is reported as inactive: 89%. In the case of `COCc1c(N)c(C)nc(Cl)c1C#N`, the survival is reported as inactive: 91%. With `COc1cccc(C(=O)COC(=O)c2cc(-c3cccs3)nc3ccccc23)c1` the survival was inactive: 54%. `Cc1cc(NS(=O)(=O)c2cn(C)c(C)n2)ccc1Br` was tested, and the survival was inactive: 92%. `Cc1ccc2cc3cc(C(=O)N4CCN(c5ccccc5)CC4)sc3nc2c1` was tested, and the survival was inactive: 90%. `COc1cccc(NC(=O)/C(C#N)=C/c2ccc(-c3ccc(C)cc3)o2)c1` was tested, and the survival was inactive: 50%. With `Cc1ccc(S(=O)(=O)Nc2cccc(-c3ccc(N4CCCC4)nn3)c2)c(C)c1` the survival was inactive: 67%. With `O=C(Cn1cc(S(=O)(=O)Cc2cccc(Cl)c2)c2ccccc21)NCc1ccccc1Cl` the survival was inactive: 91%. For `CCOC(=O)c1c(C)[nH]c(C)c1S(=O)(=O)NCC(=O)NCc1cccc(Br)c1`, the survival was inactive: 130%. In the case of `CC(C)CCSc1nnc2n(-c3ccccc3)c(=O)c3c4c(sc3n12)CC(C)CC4` (stereo not drawn), the survival is reported as inactive: 70%. For `CCc1ccc(NC(=O)Cn2c(=O)nc(-c3ccccc3F)c3cc(Cl)ccc32)cc1`, the survival was inactive: 83%. For `COC(=O)c1ccccc1N(C)S(=O)(=O)c1cc2c3c(c1)CC(=O)N3CCC2`, the survival was inactive: 78%. In the case of `Cc1cc(C)nc(-n2nc(C)c3c2N(Cc2ccccc2C)C(=O)CC3c2ccc(Cl)cc2)n1` (stereo not drawn), the survival is reported as inactive: 72%. `O=C(Nc1ccc(Oc2ccccc2)cc1)c1ccc(F)c(S(=O)(=O)N2CCN(c3ccccc3F)CC2)c1` was tested, and the survival was inactive: 87%. In the case of `Cc1c(NS(=O)(=O)c2ccc(Cl)cc2)c(=O)n(-c2ccccc2)n1C`, the survival is reported as inactive: 94%. With `Cc1nc2c(c(C)c1CCC(=O)Nc1ccc(F)cc1)c(=O)n(C)c(=O)n2C` the survival was inactive: 99%. In the case of `CCc1cccc(-n2nnc(S(=O)(=O)c3ccc(OC)cc3)c2C)c1`, the survival is reported as inactive: 101%. `COc1ccc(C2=NN(CCC(=O)NCCc3ccccc3)C(=O)CC2)cc1` was tested, and the survival was inactive: 117%. In the case of `COc1ccccc1CCNC(=O)C(=O)NCC(c1cccnc1)N1CCN(c2ccccc2)CC1` (stereo not drawn), the survival is reported as inactive: 51%. With `Cc1ccc(Cn2cc(CCC(=O)NCC(C)c3ccccc3)c3ccccc32)cc1` (stereo not drawn) the survival was inactive: 98%. With `COc1ccc(NC(=O)Cn2nnc(-c3nc(-c4ccncc4)no3)c2N)cc1OC` the survival was inactive: 88%. With `Cc1cccc(C)c1NC(=O)C1CCCN1S(=O)(=O)c1cccc2nsnc12` (stereo not drawn) the survival was inactive: 51%. For `CCn1cc(C(=O)N2CCN(c3cccc(C)c3)C(C)C2)c(=O)c2cc(S(=O)(=O)N3CCOCC3)ccc21` (stereo not drawn), the survival was inactive: 87%. In the case of `Nc1nc(Nc2cccc3ccccc23)nc(C2CCCC2=O)n1` (stereo not drawn), the survival is reported as inactive: 60%. For `COc1ccc(-c2nsc(NC(=O)c3oc4ccccc4c3C)n2)cc1`, the survival was inactive: 72%. `CCCNc1ncnc2c1c(-c1ccccc1)cn2-c1ccccc1` was tested, and the survival was inactive: 76%. With `Cc1coc2c(C)c3oc(=O)c(CCC(=O)N4CCCCC4)c(C)c3cc12` the survival was active: 44%. In the case of `COCCn1c(C)cc(O)c(C(c2ccccc2Cl)N2CCCCC2)c1=O` (stereo not drawn), the survival is reported as inactive: 80%. For `N#Cc1ccccc1OCC(=O)N1CCN(c2ccccc2)CC1`, the survival was inactive: 90%. In the case of `CN(C)c1ccc(CNC(=O)CCCN2C(=O)CCn3nc(-c4cn(C)c5ccccc45)cc32)cc1`, the survival is reported as active: 17%. `Cc1cc(=O)c2cc(C(=O)Nc3cccc(C)c3C)ccc2[nH]1` was tested, and the survival was inactive: 77%. `Cc1ccc(NC(=O)c2cccc(NC(=O)N3CCSc4ncccc43)c2)cc1F` was tested, and the survival was inactive: 88%. `CCOc1ccc(CNC(=O)c2ccc(NC(=O)N3CCSc4ncccc43)cc2)cc1` was tested, and the survival was inactive: 67%. In the case of `CCCN1C(=O)c2oc3cc(C)cc(C)c3c(=O)c2C1c1ccc(F)cc1` (stereo not drawn), the survival is reported as active: 49%. In the case of `COc1ccc(-c2cc(C(F)(F)F)nc(SCC(=O)Nc3ccc(O)cc3)n2)cc1OC`, the survival is reported as inactive: 63%. For `Cc1ccc(C)c(NC(=O)c2cnc3sc(N4CCOCC4)nn3c2=O)c1`, the survival was inactive: 116%. With `CCN(CC)CCCNC(=O)CCc1c(C)nc2c(c1C)c(=O)n(C)c(=O)n2C` the survival was inactive: 96%. With `Cn1cc(C(=O)O)c(=O)c2cc(S(=O)(=O)N3CCOCC3)ccc21` the survival was inactive: 67%. For `COc1ccccc1NC(=O)c1oc2ccccc2c1NC(=O)Cc1cccs1`, the survival was inactive: 72%. With `COc1ccc(-n2c(SCC(=O)c3ccc(Cl)cc3)nc3c([nH]c4ccccc43)c2=O)cc1` the survival was inactive: 69%. `COc1cccc(NC(=O)Cn2c(=O)n(-c3ccccc3)c(=O)c3ccc(C(=O)NCc4ccc5c(c4)OCO5)cc32)c1` was tested, and the survival was inactive: 106%. `CCOC(=O)c1cc(=O)n2[nH]c(-c3ccc(C)cc3)cc2n1` was tested, and the survival was inactive: 84%. With `COc1cc2c(cc1OC)C(c1ccc(Cl)cc1)N(c1cccc(C#N)c1)C(=O)C2` (stereo not drawn) the survival was inactive: 89%. With `COc1ccccc1N1CCN(c2ccc(=O)n(CC(=O)Nc3cc(F)ccc3C)n2)CC1` the survival was inactive: 91%. In the case of `COc1ccccc1-c1nnc(C2CCN(S(=O)(=O)c3ccc(CC(C)C)cc3)CC2)o1`, the survival is reported as inactive: 58%. With `Nc1c(C(=O)Nc2ccc(C(F)(F)F)cc2)sc2nc(-c3cccs3)ccc12` the survival was inactive: 70%. `O=C(CCc1ccccc1)NCc1ccc2c(c1)CCN2C(=O)c1ccccc1` was tested, and the survival was inactive: 76%. With `COc1cccc(-c2nc(SCc3cccc(Br)c3)n3[nH]c(=O)cc3n2)c1` the survival was inactive: 92%.
